# Measured values reported in the supplement of paper PMC12217912.
# Some of the results follow. The full chains were built here from the parent and the listed change. Inactive controls read about 0.05.
# B1: TEV protease; numbered along this chain (parent)
# chain: MGESLFKGPRDYNPISSSICHLTNESDGHTTSLYGIGFGPFIITNKHLFRRNNGTLVVQSLHGVFKVKDTTTLQQHLVDGRDMIIIRMPKDFPPFPQKLKFREPQREERICLVTTNFQTKSMSSMVSDTSCTFPSGDGIFWKHWIQTKDGQCGSPLVSTRDGFIVGIHSASNFTNTNNYFTSVPKNFMELLTNQEAQQWVSGWRLNADSVLWGGHKVFMVKPEEPFQPVKEATQL
# Variants of: B1
# Test: raw area under fraction-flipped curve 0-4 h after induction (AUC4h, not background-subtracted), DNA-recorder readout of cleavage of the substrate (dimensionless); higher = more cleavage of the substrate by the protease variant
# Settings: temperature: 34 °C; time window: 0-4 h after rhamnose induction
# Method: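 In vivo DNA recorder in E. coli TOP10(DE3) ΔrhaA at 34 °C. Each TEVp single-site mutant (parent TEVp 0) is paired with a single-site variant of the 7-mer TEVs (canonical ENLYFQ|S). The substrate sits between flexible linkers in a Bxb1-sfGFP-TEVs-SsrA fusion, so cleavage stabilises Bxb1 and speeds flipping of a recombination array, read by NGS. The value is the raw area under the fraction-flipped curve over 0-4 h after rhamnose induction (AUC4h), with ≥20 reads per time point. It is not background-subtracted; inactive controls average about 0.047.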
# 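Further: Bxb1 expression induced with 0.2% (w/v) L-rhamnose at OD600 near 0.5, cultures sampled hourly, flipped fraction per protease–substrate barcode pair counted by paired-end Illumina sequencing.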
Variant,area with substrate ENLYDQS,area with substrate ENLYEQS,area with substrate ENLYGQS,area with substrate ENLYHQS,area with substrate ENLYIQS,area with substrate ENLYKQS,area with substrate ENLYMQS,area with substrate ENLYNQS,area with substrate ENLYSQS,area with substrate ENLYTQS,area with substrate ENLYVQS,area with substrate ENLYWQS,area with substrate ENLYQQS,area with substrate ENLYYQS,area with substrate ENLYPQS,area with substrate ENLYRQS,area with substrate ENLYLQS
MGESLFKGPRDYNPISSSICHLTNESDGHTTSLYGIGFGPFIITNKHLFRRNNGTLVVQSLHGVFKVKDTTTLQQHLVDGRDMIIIRMPKDFPPFPQKLKFREPQREERICLVTTNFQTKSMSSMVSDTSCTFPSGDKIFWKHWIQTKDGQCGSPLVSTRDGFIVGIHSASNFTNTNNYFTSVPKNFMELLTNQEAQQWVSGWRLNADSVLWGGHKVFMVKPEEPFQPVKEATQL [G138K],0.0616,0.0754,0.0622,0.0755,0.104,0.0696,0.0673,0.0644,0.0726,0.0901,0.0999,0.0567,–,–,–,–,–
MGESLFKGPRDYNPISSSICHLTNESDGHTTSLYGIGFGPFIITNKHLFRRNNGTLVVQSLHGVFKVKDTTTLQQHLVDGRDMIIIRMPKDFPPFPQKLKFREPQREERICLVTTNFQTKSMSHMVSDTSCTFPSGDGIFWKHWIQTKDGQCGSPLVSTRDGFIVGIHSASNFTNTNNYFTSVPKNFMELLTNQEAQQWVSGWRLNADSVLWGGHKVFMVKPEEPFQPVKEATQL [S124H],0.081,0.0618,0.0836,–,0.135,0.0583,0.0894,–,–,0.074,–,0.0967,0.0677,0.059,–,–,–
MGESLFKGPRDYNPISSSICHLTNESDGHTTSLYGIGFGPFIITNKHLFRRNNGTLVVQSLHGVFKVKDTTTLQQHLVDGRDMIIIRMPKDFPPFPQKLKFREPQREERICLVTTNFQTSSMSSMVSDTSCTFPSGDGIFWKHWIQTKDGQCGSPLVSTRDGFIVGIHSASNFTNTNNYFTSVPKNFMELLTNQEAQQWVSGWRLNADSVLWGGHKVFMVKPEEPFQPVKEATQL [K120S],0.066,0.0676,0.0604,0.0704,0.109,0.041,0.0867,0.0785,0.0737,–,0.133,0.0792,0.0502,–,0.067,0.0433,–
MGESLFKGPRDYNPISSSICHLTNESDGHTTSLYGIGFGPFIITNKHLFRRNNGTLVVQSLHGVFKVKDTTTLQQHLVDGRDMIIIRMPKDFPPFPQKLKFREPQREERICLVTTNFQTKSMCSMVSDTSCTFPSGDGIFWKHWIQTKDGQCGSPLVSTRDGFIVGIHSASNFTNTNNYFTSVPKNFMELLTNQEAQQWVSGWRLNADSVLWGGHKVFMVKPEEPFQPVKEATQL [S123C],0.0558,0.0612,0.0662,0.0667,0.111,0.0439,0.103,0.0886,–,–,0.087,0.0817,0.0649,0.0596,0.0732,0.053,–
MGESLFKGPRDYNPISSSICHLTNESDGHTTSLYGIGFGPFIITNKHLFRRNNGTLVVQSLHGVFKVKDTTTLQQHLVDGRDMIIIRMPKDFPPFPQKLKFREPQREERICLVTTNFQTKSMSSMVSDTSCTAPSGDGIFWKHWIQTKDGQCGSPLVSTRDGFIVGIHSASNFTNTNNYFTSVPKNFMELLTNQEAQQWVSGWRLNADSVLWGGHKVFMVKPEEPFQPVKEATQL [F133A],0.0592,0.0626,–,–,0.119,0.0632,0.0853,0.0728,–,–,–,0.0912,0.0665,–,0.0668,0.0618,0.0901
MGESLFKGPRDYNPISSSICHLTNESDGHTTSLYGIGFGPFIITNKHLFRRNNGTLVVQSLHGVFKVKDTTTLQQHLVDGRDMIIIRMPKDFPPFPQKLKFREPQREERICLVTTNFQTKSMSSMVSDTSCTRPSGDGIFWKHWIQTKDGQCGSPLVSTRDGFIVGIHSASNFTNTNNYFTSVPKNFMELLTNQEAQQWVSGWRLNADSVLWGGHKVFMVKPEEPFQPVKEATQL [F133R],0.0662,0.0773,0.0678,0.0704,0.15,0.077,0.0985,0.0562,0.0856,0.104,–,0.0936,0.0589,0.0591,0.0808,0.0685,–
MGESLFKGPRDYNPISSSICHLTNESDGHTTSLYGIGFGPFIITNKHLFRRNNGTLVVQSLHGVFKVKDTTTLQQHLVDGRDMIIIRMPKDFPPFPQKLKFREPQREERICLVTTNFQTKSMSSMVSDNSCTFPSGDGIFWKHWIQTKDGQCGSPLVSTRDGFIVGIHSASNFTNTNNYFTSVPKNFMELLTNQEAQQWVSGWRLNADSVLWGGHKVFMVKPEEPFQPVKEATQL [T129N],0.066,0.0657,0.0775,0.0545,0.205,0.0448,0.0775,0.0664,–,–,0.156,0.0796,0.0702,–,0.102,0.0553,–
MGESLFKGPRDYNPISSSICHLTNESDGHTTSLYGIGFGPFIITNKHLFRRNNGTLVVQSLHGVFKVKDTTTLQQHLVDGRDMIIIRMPKDFPPFPQKLKFREPQREERICLVTTNFQTKSMSSMVCDTSCTFPSGDGIFWKHWIQTKDGQCGSPLVSTRDGFIVGIHSASNFTNTNNYFTSVPKNFMELLTNQEAQQWVSGWRLNADSVLWGGHKVFMVKPEEPFQPVKEATQL [S127C],0.0577,0.104,0.0714,0.0719,–,0.0579,–,0.0684,0.0602,–,0.129,–,0.0665,0.0718,0.0729,0.0533,0.0918
MGESLFKGPRDYNPISSSICHLTNESDGHTTSLYGIGFGPFIITNKHLFRRNNGTLVVQSLHGVFKVKDTTTLQQHLVDGRDMIIIRMPKDFPPFPQKLKFREPQREERICLVTTNFQDKSMSSMVSDTSCTFPSGDGIFWKHWIQTKDGQCGSPLVSTRDGFIVGIHSASNFTNTNNYFTSVPKNFMELLTNQEAQQWVSGWRLNADSVLWGGHKVFMVKPEEPFQPVKEATQL [T119D],0.0603,0.0652,–,0.0654,–,–,–,0.0648,0.0835,0.0745,0.123,0.105,–,–,0.0812,–,0.0897
